Measured values: the supplement of paper PMC11417369
± gives the standard deviation of the averaged measurements. The list shows a part of the results.

tested on: PfAP2-EXP AP2 domain (GST-tagged); experiment: gcPBM binding intensity (ln(normalized median fluorescence intensity)); higher = stronger DNA binding
Method in brief: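 Binding of GST-tagged P. falciparum DNA-binding domains, expressed in E. coli and used at about 25 μg on average, was carried out for 1 h in 1× PBS containing 1% milk, 0.2 mg/ml BSA, 0.5% salmon testes DNA and 0.03% Triton X-100. The target was an Agilent 4 × 180k array of primer-extended double-stranded 36-bp intergenic genomic probes plus negative controls, read with Alexa488 anti-GST antibody at 488 nm. Binding intensity is the highest Masliner-normalised natural-log median intensity across replicate spots of either probe orientation.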

Point of comparison: “TTAATATAGGGAAAAAAAAGAAAATCGAAAATGTGT [CACACA_negctrl_site834]”, “gcPBM binding intensity (ln)” value 8.76 ± 0.49. Against it:
- ATATTTTTATATGAGGTGCATATAATGACAATTAAG — within error, 8.765 ± 0.035
- ATACTATTTAAATGGGTGCTAAAAATAACAAAAATT — within error, 8.84 ± 0.34
- TCTTTTTATGTTCTAGAGCATTTTATTATTTAACAT [CACACA_negctrl_site1699] — within error, 8.71 ± 0.42
- TTCCCCCCCAGACACACACACACATACATACCACAT [CACACA_site2305] — higher, 10.5 ± 0.24
- AATCGAAATCGTGCACGGACACATGCAGTAGCCGAG [XGTACX_site6001] — within error, 9.29 ± 0.6
- ATATATATACACAATAGTACGTGTAATATTATTATT [XGTACX_site2151] — within error, 8.525 ± 0.021
- TATACCTATAAATACACACACATATATAAATAAATA [CACACA_site6730] — within error, 8.64 ± 0.47
- TTTTCTTTTTGTTCGTGTACACACATGAAATTTATA [XGTACX_site3301] — within error, 9.02 ± 0.38
- AAACGTACATAATACACACACATGTATACATATAAA [CACACA_site2048] — within error, 8.74 ± 0.52
- ATTTCTTTTTTTTTTTTTTTTAATGTAAAACATTTT [CACACA_negctrl_site1462] — within error, 8.34 ± 0.51
- GAAGTTAGTGTTGACTGTACATATATATGTATATAT [XGTACX_site7243] — within error, 8.69 ± 0.35
- AAAAAAAAAAAAAAGAGTACTCATATAAAAATATAA [XGTACX_site6551] — within error, 8.43 ± 0.33
- GGTGGTAAAAAACCTGCATGTCGAAATATTAAATAC [TGCATGCA_site33] — within error, 9.23 ± 0.29
- AAGAAGAAACAAAACACACACAGTCTTCTTTTCTAT [CACACA_site3088] — within error, 8.78 ± 0.78
- GTATATGAATAATATTTTATGGTAATTTTTTTTTTT [XGTACX_negctrl_site512] — within error, 8.12 ± 0.38
- TACAGAATTGTATATAGTACATAAAACAATATATAT [XGTACX_site7275] — within error, 8.7 ± 0.43
- TGTGTAAAAATCATGGGTACACATTTTGATACCAAT [XGTACX_site1779] — within error, 8.69 ± 0.4
- AATGAAAAGTAAAATACACACACATAATATAATTTA [CACACA_site8608] — within error, 8.59 ± 0.39
- AAACTTGACGAACACACACACACATATATAAAAAAA [CACACA_site6494] — within error, 8.72 ± 0.45
- TTTTTATAAAAAATTTACACTATATGACAGAAGTAA [XGTACX_negctrl_site481] — within error, 8.38 ± 0.49
- ATAAATTAAAAACACACACACATCTGGATACCCCTA [CACACA_site5780] — within error, 8.77 ± 0.49
- ATATAAGTACCTATAACACACATATATTATAAGTAT [CACACA_site7281] — within error, 8.5 ± 0.35
- TAGAATAAATTAATTACACACGGAATTATATATATA [CACACA_site1616] — within error, 8.88 ± 0.014
- AAAAAAAAAAAAAAAAGTACATGAAAAAAAGAAGAA [XGTACX_site8384] — within error, 8.87 ± 0.28
- TATAATAGTTCATAGGTGCAATATAATAAATTTATA [GTGCAC_site9573] — within error, 8.71 ± 0.15
- TATCATATATTATAGCGTACTTATTTATTTATTTAT [XGTACX_site1676] — within error, 8.79 ± 0.47
- AAAAAATACATCAAAAGAAACATATATATATATATA [GTGCAC_negctrl_site719] — higher, 10.2 ± 0.67
- ATAAAACTTATTTAACGTACATATTTTATATACCTT [XGTACX_site5353] — within error, 8.69 ± 0.45
- TATAAAATAAATAACAAAAAAAATAAAATAAAAATA [TGCATGCA_negctrl_site297] — within error, 8.47 ± 0.47
- TTTTTTTTTTAGTATGAACACACATATATATTATAA [CACACA_site8957] — within error, 8.46 ± 0.32
- AATGGTTATAATATATGTACATATAAATATACTGAA [XGTACX_site8533] — within error, 8.6 ± 0.38
- TATAGCAAAATATTCACACAAACTATTAATAAAAGT [CACACA_site5795] — within error, 8.69 ± 0.45
- CTGTATTTATTTTTCTGTACCAAATCACCCCTTGTA [XGTACX_site395] — within error, 9.02 ± 0.45
- TATATTTATAAATGAACACACACGCAATTTGAATCG [CACACA_site3370] — within error, 8.91 ± 0.49
- TTTCTTTTTCGATATACACACTGTATGTGTCTAAAA [CACACA_site6054] — within error, 8.46 ± 0.35
- TACGTTTTATGACACACACACAAAAAAAAAAAAAAA [CACACA_site7764] — within error, 8.32 ± 0.45
- GATGTATAAAATAATACATGCATGTCCTACATATAT [TGCATGCA_site155] — within error, 9.37 ± 0.37
- ACTATTTTAAAAATATGTACATACGTTGTAATTTAA [XGTACX_site7999] — within error, 8.57 ± 0.37
- TTTCCGGTAATATGGAAATATATGTGGGTTTTTTTT [CACACA_negctrl_site1536] — within error, 8.42 ± 0.69
- CGAAGGATAAACATACGTACATATATGTGTATAATA [XGTACX_site779] — within error, 8.67 ± 0.47
- TTGTATTAAAATCAAGTGCATATAATTTAAGTTCAT [GTGCAC_site9495] — within error, 8.38 ± 0.11
- CTTTGGTTATAACACACATGCACACGTAAATAAATA [TGCATGCA_site976] — within error, 9.13 ± 0.38
- GTAGGTTACAAAATGTGAGAGAAGCAAATATAGAAA [CACACA_negctrl_site1819] — within error, 9.06 ± 0.4
- CATCACCTTTTTAAATGTACGCATAATACCAAAAAA [XGTACX_site1587] — within error, 8.67 ± 0.17
- TTTTGTTTTTAGTTTATACACACCATATTAATATAA [CACACA_site3102] — the same, 8.76 ± 0.44
- AAAAATGGTGTTAACACACACATATATATATATATA [CACACA_site571] — higher, 10.2 ± 0.17
- TTTCTCTCTTATAAAATACACACGAACAATCATATT [CACACA_site509] — within error, 8.5 ± 0.38
- ATAAATAGTATTATATGTACACATAATATTTATAAA [XGTACX_site4751] — within error, 8.62 ± 0.14
- ATAGTTACACGCCAAAAAAAAAAAAAAAAAAAAAAA [CACACA_negctrl_site1133] — within error, 8.15 ± 0.44
- TATAATTATGATGATAGTACGTATGAGTTCAAAACA [XGTACX_site4211] — within error, 8.62 ± 0.37
- CACATTTTTTAAATATTTTTCTACTCCATAATGTTT [CACACA_negctrl_site557] — within error, 8.89 ± 0.4
- TTAAAATGATTGTTACTTTTTTTTCCGTTTTCTTAA [CACACA_negctrl_site1195] — within error, 8.41 ± 0.52
- AATTTTGTCCTATGTTGTACTATTTTGCTCTATTTT [XGTACX_site7139] — within error, 9.12 ± 0.55
- TAACTTCAAAAATCTTGTACATAAATATATAAAACA [XGTACX_site8574] — within error, 8.53 ± 0.44
- GTTTATATATTATAAAGTACATATGAATTTAATAAT [XGTACX_site3601] — within error, 8.39 ± 0.39
- ATTTCAAAATATAGCTGTACAAAAAATGTAGATATA [XGTACX_site5843] — within error, 8.77 ± 0.56
- AAAAAATAAATAAACATAAATAAATAAATAAATATA [XGTACX_negctrl_site340] — within error, 8.49 ± 0.33
- GATCATTCTAAATATAAACACACATAAATATATACA [CACACA_site9108] — within error, 8.7 ± 0.51
- ATAATATAATAATATTGTACATGGTCAAATATGAAA [XGTACX_site8390] — within error, 8.46 ± 0.3
- CTTAAAAAAATATATTGTACATATATATATACAACT [XGTACX_site1281] — within error, 8.33 ± 0.3
- TATATTCCCATATAACGTACATATGAGACACCAACT [XGTACX_site8099] — within error, 8.65 ± 0.42
- CACGTGAAAATACAAGCATGCAAGCTTTTTTTTTCT [TGCATGCA_site642] — higher, 9.47 ± 0.085
- AATTTTCAATAGTATACACACAATTCTATAAATATA [CACACA_site6650] — within error, 8.21 ± 0.42
- AATGAGAATTTTATTACACACTTTAATATATTTTCA [CACACA_site784] — within error, 8.34 ± 0.38
- AATTTTTTTATAGCACGTACAAAAATACAAAATACA [XGTACX_site1569] — within error, 8.94 ± 0.16
- TTATGTCTAATGAAATGTACATGAATAAATTAAAGT [XGTACX_site8138] — within error, 9.04 ± 0.25
- AGTGAAATTTTAGTCACACAGTTTTATCTTTAAGAA [CACACA_site5202] — within error, 8.12 ± 0.52
- TAGAGGAATATAATATGTACATAATATAATGTATAT [XGTACX_site2838] — within error, 8.62 ± 0.4
- ATCATTTATATTTTATGTACATATATAATTATATTT [XGTACX_site2129] — within error, 8.88 ± 0.35
- AAAAAAATAAATAAATGTACACATATATATATATAT [XGTACX_site4350] — higher, 10.2 ± 0.47
- AATTATATAAGCCACGCATGTGTGCATAAAAATACA [TGCATGCA_site114] — within error, 8.93 ± 0.24
- AGCCCAAAAAAGTAGACATGCAAAAACTTTACAACT [TGCATGCA_site550] — within error, 8.79 ± 0.46
- AAAAAAAAAAAGAAGGGTACATATTATATATAATAT [XGTACX_site6204] — within error, 8.59 ± 0.48
- TATATATAAACATAATGTACATATAATAAGTAATAT [XGTACX_site497] — within error, 8.89 ± 0.45
- TCTTGATCTTATATATATCTACAATATTTTATACAT [TGCATGCA_negctrl_site569] — within error, 8.84 ± 0.41
- ATTACAAATATAATATGTACTTAAATATAATTAAAA [XGTACX_site7038] — within error, 8.17 ± 0.34
- ATTACTAAAACAAAATGTACATATGATTTAAGAAAA [XGTACX_site5992] — within error, 8.52 ± 0.3
- TTTTTTTTTTAGAGTACACACTTTTTTACATTTATG [CACACA_site5990] — within error, 8.56 ± 0.4
- ATATATATATATATTGCACACATATAAATATATATA [CACACA_site8167] — higher, 9.95 ± 0.29
- TTTTTGTTTTTTTTGTGTACTTATCAAATATATATA [XGTACX_site7273] — within error, 8.81 ± 0.42
- GAAAAATTTAATTATTGTACGTTTCATCTATATTTA [XGTACX_site414] — within error, 8.57 ± 0.44
- AAGAAAATTAACCCATGTACTTATGTAGATAGCAAG [XGTACX_site1049] — within error, 8.64 ± 0.42
- TACTATATATTATATAGTACATAAGATATACAACAT [XGTACX_site2929] — within error, 8.61 ± 0.38
- CAAAAAAAATTATACACACACACACCCATATATATA [CACACA_site1044] — within error, 8.85 ± 0.3
- TAAAACTTAATATAAACACACAAAAATTAATAAATA [CACACA_site4370] — within error, 8.47 ± 0.53
- CAATATTATAGATATACACACATAATGTGTAAAAAC [CACACA_site6631] — within error, 8.68 ± 0.39
- CATATTTTGTGAAAAAGTACATATATATATATATAT [XGTACX_site6295] — higher, 10.1 ± 0.33
